Measurements: ChEMBL document CHEMBL4665834 (J Med Chem, 2020)

test: physchem; conditions: not given

Row | Structure (SMILES) | solubility
1 | COc1ccccc1C(C)CNC(=O)c1c(C)c(-c2ccccc2)nc2ccc(Br)cc12 (single isomer, unassigned; (-)) | < 0.1 µg/mL

test: Induction of CYP3A4 mRNA expression in human hepatocytes supplemented with fresh medium containing compounds daily for 2 days measured 24 hrs post last dose by qRT-PCR analysis; conditions: 72 h

Row | Structure (SMILES) | NOAEL
2 | Cc1c(N2CCCCC2)nc2ccc(Br)cc2c1C(=O)NCC(CCC(=O)O)c1c(F)ccc(F)c1Cl (single isomer, unassigned; (-)) | 600 nM

test: Lipophilicity, log D of compound at pH 7.5 by HPLC analysis; conditions: buffer

Row | Structure (SMILES) | logD
3 | Cc1c(N2CCCCC2)nc2ccc(Br)cc2c1C(=O)NCC(CCC(=O)O)c1c(F)ccc(F)c1Cl (single isomer, unassigned; (+)) | 2.7
4 | COc1ccccc1C(C)CNC(=O)c1c(C)c(-c2ccccc2)nc2ccc(Br)cc12 (single isomer, unassigned; (+)) | 4.3
5 | Cc1c(-c2ccccc2)nc2ccc(Br)cc2c1C(=O)NCC(C(=O)O)c1ccccc1Cl (stereo in doubt; 31) | 1.9
6 | Cc1c(-c2ccccc2)nc2ccc(Br)cc2c1CNc1ccc(C(=O)O)cc1F | 2.3
7 | Cc1c(-c2ccccc2)nc2ccc(Br)cc2c1C(=O)NC(C)Cc1ccccn1 (racemic) | 2.9
8 | Cc1c(N2CCCCC2)nc2ccc(Br)cc2c1C(=O)NCC(CCC(=O)O)c1ccccc1Cl (stereo in doubt; 48) | 2.6
9 | Cc1c(-c2ccccc2)nc2ccc(Br)cc2c1C(=O)NCCc1ccccn1 | 2.7
10 | Cc1c(-c2ccccc2)cc2ccc(Br)cc2c1C(=O)Nc1ccc(C(=O)O)cc1F | 2.3
11 | Cc1c(N2CCCCCC2)nc2ccc(Br)cc2c1C(=O)NCC(CCC(=O)O)c1ccccc1Cl (single isomer, unassigned; (+)) | 2.9
